The values below come from publication PMC5429092 (2017).

What is called Kd is the concentration at which binding is half-saturated.

Test [1] concerns the target T1, biotinylated human PPP1R15A^533-624 (AviTag-PPP1R15A 533-624-MBP) (human, UniProt O75807 partial chain, biotin on a single lysine residue of the AviTag). Put plainly: BLI.
For test [2], the target named is T1, biotinylated human PPP1R15A^533-624 …. Kind of test: BLI; Sephin1 50 uM.
The target in test [3] is biotinylated human PPP1R15A^(533-624)F592A (human, UniProt O75807 partial chain, F592A, biotin on the AviTag). Kind of test: BLI.
Test [4] addresses biotinylated human PPP1R15A^(533-624)W582A (human, UniProt O75807 partial chain, W582A, biotin on the AviTag). Put plainly: BLI. (In BLI a coated tip is dipped into the sample, and binding shifts an interference pattern.)
Test [5] has as its target biotinylated human PPP1R15A^(533-624)R578A (human, UniProt O75807 partial chain, R578A, biotin on the AviTag). Put plainly: BLI.

B1: PP1 (PP1G […], full-length PP1 phosphatase catalytic subunit) (enzyme)
chain: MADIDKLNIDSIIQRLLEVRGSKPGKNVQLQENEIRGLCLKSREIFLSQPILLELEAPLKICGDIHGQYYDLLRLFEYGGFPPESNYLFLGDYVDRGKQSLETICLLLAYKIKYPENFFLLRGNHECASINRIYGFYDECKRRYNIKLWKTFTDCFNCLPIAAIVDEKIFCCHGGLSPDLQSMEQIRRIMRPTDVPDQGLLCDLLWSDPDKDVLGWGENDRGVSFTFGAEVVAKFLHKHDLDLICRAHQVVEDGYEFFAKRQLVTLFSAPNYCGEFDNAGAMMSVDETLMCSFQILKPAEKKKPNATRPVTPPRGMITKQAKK
In the case of B1, the dissociation constant Kd came to 17 nM in test [1]; 18.2 nM in test [2]; 20.8 nM in test [3]; 13.7 nM in test [4]; 15.6 nM in test [5].
